Reference: a collection of fitness landscapes (doi:10.1016/j.celrep.2020.107928)
Whole data set: some 81,000 sequences, median “one-hybrid fitness for binding NBS DNA” near -0.1, cut for the highest 2% near 0.36. This is one part of the list.

B1: Caulobacter ParB omega fusion; a variant is named by its letters at X, in order, B8GW30 (parent)
chain: MESVVVGEPGMSEGRRGLGRGLSALLGEVDAAPAQAPGEQLGGSREAPIEILQRNPDQPRRTFREEDLEDLSNSIREKGVLQPILVRPSPDTAGEYQIVAGERAWRAAQRAGLKTVPIMVRELDDLAVLEIGIIENVQRADLNVLEEALSYKVLMEKFERTQENIAQTIGKSXSHVANXMRLLXLPDEVQSYLVSGELTAXHARAIAAAADPVALAKQIIEGGLSVRETEALARKAPNLSAGKSKGGRPPRVKDTDTQALESDLSSVLGLDVSIDHRGSTGTLTITYATLEQLDDLCNRLTRGI

Variants of: B1
Assay: one-hybrid fitness for binding NBS DNA (the Noc-binding site; scaled: cognate 1, non-cognate 0); higher = stronger binding
Conditions: with NBS DNA site
Procedure, shortened: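 Fitness is the rescaled log change in variant-to-wild-type read ratio, measured by Illumina sequencing of plasmids before and after bacterial one-hybrid selection. The scale puts cognate at 1 and non-cognate at 0. Selection of Caulobacter ParB libraries, four specificity codons randomised, took place in E. coli USO with a HIS3 reporter, site 19 bp from the promoter, over 48 hours at 37°C on M9-minus-histidine with 0.1 mM IPTG and 5 mM 3-AT.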

Variant	one-hybrid fitness for binding NBS DNA
PLKA	≤ 0.2
RCQH	0.228
SCIY	≤ 0.2
QPRC	≤ 0.2
LYYT	≤ 0.2
IPPS	≤ 0.2
TCVR	≤ 0.2
VDAF	≤ 0.2
PDDL	≤ 0.2
YSHY	≤ 0.2
NVGN	≤ 0.2
FDDT	≤ 0.2
CMAG	≤ 0.2
VKIR	≤ 0.2
HPKA	≤ 0.2
WRCS	≤ 0.2
PEAG	≤ 0.2
PQNM	≤ 0.2
AESS	≤ 0.2
PGHY	≤ 0.2
GKPH	≤ 0.2
RRNM	0.428
VYPY	≤ 0.2
NFES	≤ 0.2
LYSN	≤ 0.2
MFPT	≤ 0.2

Variant	one-hybrid fitness for binding NBS DNA
YRLS	≤ 0.2
GRTS	≤ 0.2
CMGC	≤ 0.2
ARWG	≤ 0.2
ITAS	≤ 0.2
RVLQ	≤ 0.2
KENC	≤ 0.2
HKGH	≤ 0.2
HFLR	≤ 0.2
KRCI	≤ 0.2
MVLV	≤ 0.2
PDHE	≤ 0.2
DPGS	≤ 0.2
PTER	≤ 0.2
KFAS	≤ 0.2
HKST	≤ 0.2
PKWL	≤ 0.2
PFNL	≤ 0.2
PHIA	≤ 0.2
IADT	≤ 0.2
PYLR	≤ 0.2
KRVW	≤ 0.2
TENS	≤ 0.2
TDVR	≤ 0.2
WSMC	≤ 0.2
APID	≤ 0.2

Variant	one-hybrid fitness for binding NBS DNA
CHLG	≤ 0.2
THTV	≤ 0.2
KMKR	0.4
YVNP	≤ 0.2
NWLW	≤ 0.2
ENLY	≤ 0.2
CHTR	≤ 0.2
SSRA	≤ 0.2
HWRT	≤ 0.2
MTSF	≤ 0.2
AVTT	≤ 0.2
MNTL	≤ 0.2
NDLE	≤ 0.2
QPSI	≤ 0.2
VPNN	≤ 0.2
NDLC	≤ 0.2
VTDW	≤ 0.2
RRML	≤ 0.2
RWQH	≤ 0.2
GTVQ	≤ 0.2
SPLF	≤ 0.2
PGAL	≤ 0.2
GAST	≤ 0.2
FIAR	≤ 0.2
PCCV	≤ 0.2
MTRF	≤ 0.2

Variant	one-hybrid fitness for binding NBS DNA
LWSL	≤ 0.2
GSMG	≤ 0.2
EQSY	≤ 0.2
LAVF	≤ 0.2
SDPC	≤ 0.2
LHPR	≤ 0.2
TQTV	≤ 0.2
DLVK	≤ 0.2
FQNA	≤ 0.2
KETN	≤ 0.2
YISS	≤ 0.2
PKMR	≤ 0.2
HSDL	≤ 0.2
GAQR	≤ 0.2
RQAL	≤ 0.2
QESM	≤ 0.2
PIER	≤ 0.2
MRCG	≤ 0.2
GSGM	≤ 0.2
GFIT	≤ 0.2
PDFL	≤ 0.2
AKHQ	≤ 0.2
PYRM	≤ 0.2
TKYV	≤ 0.2
NLSC	≤ 0.2
YLIY	≤ 0.2

Variant	one-hybrid fitness for binding NBS DNA
FKLV	≤ 0.2
PTWE	≤ 0.2
WGGR	≤ 0.2
VVNF	≤ 0.2
HQLG	≤ 0.2
RVEA	≤ 0.2
NHIT	≤ 0.2
IVIS	≤ 0.2
RRAF	≤ 0.2
GTWI	≤ 0.2
GKTA	≤ 0.2
FSWG	≤ 0.2
RHLG	≤ 0.2
PQRG	≤ 0.2
WCYG	≤ 0.2
PHHR	≤ 0.2
REKN	≤ 0.2
NGHC	≤ 0.2
CKKK	≤ 0.2
RDHG	≤ 0.2
FVWS	≤ 0.2
CSAH	≤ 0.2
LRIP	≤ 0.2
RHED	≤ 0.2
YYNL	≤ 0.2
QQRR	1.09

Variant	one-hybrid fitness for binding NBS DNA
TTEV	≤ 0.2
MSAS	≤ 0.2
LNRV	≤ 0.2
QDLT	≤ 0.2
MSIL	≤ 0.2
THLD	≤ 0.2
CVCF	≤ 0.2
SAED	≤ 0.2
RDYY	≤ 0.2
CCYA	≤ 0.2
GNYS	≤ 0.2
HGIC	≤ 0.2
RRLV	0.217
IRDI	≤ 0.2
TQNV	≤ 0.2
PAEP	≤ 0.2
YLRS	≤ 0.2
LSNK	≤ 0.2
NQFR	≤ 0.2
RHRF	≤ 0.2
RKDR	0.443
RVTT	0.449
HGTP	≤ 0.2
